± gives the standard deviation of the averaged measurements. The list shows a part of the results.

This assay relates to PfAP2-EXP AP2 domain (GST-tagged). The experiment in a line: gcPBM binding intensity (ln(normalized median fluorescence intensity)); higher = stronger DNA binding. A digest of the protocol: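 After 1 h on an Agilent 4 × 180k array of primer-extended double-stranded 36-bp intergenic genomic probes and negative controls, bound GST-tagged P. falciparum DNA-binding domains were detected with Alexa488 anti-GST antibody and scanned at 488 nm. The domains had been expressed in E. coli, and binding took place in 1× PBS with 1% milk, 0.2 mg/ml BSA, 0.5% salmon testes DNA and 0.03% Triton X-100. Binding intensity is the highest Masliner-normalised natural-log median intensity across replicate spots of either probe orientation.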
For “TTCCCTATCTTTTCAGTGCATTTTGTTTCCTACCTT [GTGCAC_site9813]”, the “gcPBM binding intensity (ln)” value came out at 9.25 ± 0.4.
The result for “TTCAAATGATTTATGTGTACATAAAATTATTTTTTA [XGTACX_site107]” reads 8.09 ± 0.21; that for “GATATAGGGCGTATGTTAATCGTGAAAGAGTGTCTT [GTGCAC_negctrl_site102]”, 8.86 ± 0.52; that for “ATTGGTTCCCCTCTCTTTTCAATATATTTTTTTTTT [XGTACX_negctrl_site259]”, 8.59 ± 0.4.
The result for “ATAAAGAATATAAATACACACTTAAATATAGATTAT [CACACA_site7804]” reads 8.42 ± 0.65; that for “TAATGAAGCTTATGCACACGTTCATTATTTATATTA [CACACA_site3219]”, 8.79 ± 0.092; that for “AAAAAATTAAAAATCACACATAAATATATATAAAAA [CACACA_site4192]”, 8.45 ± 0.4.
As for “ATATTACAGTACAATACATGCATATGGAAAAAAAAA [TGCATGCA_site72]”, the “gcPBM binding intensity (ln)” value turned out to be 8.82 ± 0.52.
The figure for “TACTTATATTGAAATGGTACAGATAAAAAAAAAAAA [XGTACX_site1407]” is 8.64 ± 0.47; for “ACATTCTATCTAAGTACACACATTAATTTTTTTTTT [CACACA_site4106]” it is 8.66 ± 0.32; for “TTTTGTAATGTGAATATTTGTATATTATTTGTATAT [CACACA_negctrl_site1677]” it is 8.19 ± 0.22.
The result for “TAATATTTTTTGTGTACACATATATATATATATATA [CACACA_site5504]” reads 10.2 ± 0.53; that for “AATTTACATATATATTGTACATTTATGTATATATAT [XGTACX_site4186]”, 8.38; that for “AAAAAAAAAAAAAACACACAAACATCAAATTATTAT [CACACA_site1838]”, 8.48 ± 0.43.
Consider “GTGCCCTTTTTAATAACATGCAAATAACATATTTAT [TGCATGCA_site709]”, for which the “gcPBM binding intensity (ln)” value came out at 8.88 ± 0.29.
Turning to “AATTAGATGGATAAATGTACATATGTGAATATATTT [XGTACX_site85]”, the “gcPBM binding intensity (ln)” value is 8.85 ± 0.52.
As to “ATATAACACAAGGGCACACATATACCTTTCCTTTTT [CACACA_site412]”, the “gcPBM binding intensity (ln)” value came out at 8.77 ± 0.36.
The figure for “TTTATATTATACGCACTAATATATATATATATATAT [TGCATGCA_negctrl_site47]” is 10.1 ± 0.29; for “GTAATATATATTAAGTAATAGTTTATCTTAGGAAAA [TGCATGCA_negctrl_site302]” it is 8.15 ± 0.47.
The result for “ATCTTATATCGTAGAGATTTTTTTTTTTTTTCATTT [XGTACX_negctrl_site140]” reads 8.12 ± 0.44; that for “AATTTCTTCTTAGGGTGTACAATTTGACATAAGGAA [XGTACX_site1773]”, 8.68 ± 0.42; that for “GAGAGTACCTATATTGCATGCAGACTTTTTAAATAT [TGCATGCA_site564]”, 10.1 ± 0.16.
The figure for “TAAAATAAAAATTTATGTACACATAAAAAAACAAAA [XGTACX_site1112]” is 8.66 ± 0.25; for “GTTAAAATAATATGGTGTACAAATATATAAGTTCAT [XGTACX_site3262]” it is 8.79 ± 0.3.

(Values after the supplement of paper PMC11417369.)
